Source: patent US20230279153A1 (Regeneron, published 2023)
Values belong to the binder of their own block, whether it stands above or below them.

What was measured:
mouse PD1 [1] = target: T1, mouse PD1 (mouse, UniProt Q02242 25-288); test: flow cytometry on Jurkat/mPD1 cells
T1 construct: whole, on cells; also called mPD1; murine PD1
T1 sequence (looked up): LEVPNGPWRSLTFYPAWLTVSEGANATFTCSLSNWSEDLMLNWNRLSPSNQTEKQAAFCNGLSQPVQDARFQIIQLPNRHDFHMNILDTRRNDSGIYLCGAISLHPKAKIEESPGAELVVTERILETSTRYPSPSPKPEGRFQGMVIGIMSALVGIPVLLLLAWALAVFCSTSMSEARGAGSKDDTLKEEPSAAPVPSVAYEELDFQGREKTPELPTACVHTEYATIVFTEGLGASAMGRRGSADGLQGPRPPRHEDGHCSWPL
Protocol: (§1) Cells (HEK 293, MC38 over-expressing mCD20 or Jurkat over-expressing mPD1) were resuspended in FACS wash (PBS with 1% FBS) at 1×10⁶ cells/mL. The staining was performed in 1×10⁵ cells per well. The antibodies were diluted with a ratio of 1:5 from a starting concentration of 1.3×10⁻⁰⁷ M. The diluted antibodies were then added into the wells containing cells. Cells were stained for 30 min at 2-8° C. and washed twice with FACS wash buffer. APC-conjugated goat anti-human IgG (Jackson Immuno Research, 109-607-003, 1:400) was added to stain the cells for 30 min at 2-8° C. Following washing, cells were fixed in 2% paraformaldehyde for 30 min at 2-8° C. After two washes, stained cells were analyzed using BD LSRFortessa™ FACS instrument. The results were analyzed by FlowJo. FSC/SSC gates were used to select mononuclear cells.

mouse PD1 [2] = target: T1, mouse PD1; test: cell-based or functional assay
mouse CD20 [3] = target: T2, mouse CD20 (mouse, UniProt P19437 1-291); test: flow cytometry on HEK293/mCD20 cells
T2 construct: whole, on cells; also called mCD20; murine CD20
T2 sequence (looked up): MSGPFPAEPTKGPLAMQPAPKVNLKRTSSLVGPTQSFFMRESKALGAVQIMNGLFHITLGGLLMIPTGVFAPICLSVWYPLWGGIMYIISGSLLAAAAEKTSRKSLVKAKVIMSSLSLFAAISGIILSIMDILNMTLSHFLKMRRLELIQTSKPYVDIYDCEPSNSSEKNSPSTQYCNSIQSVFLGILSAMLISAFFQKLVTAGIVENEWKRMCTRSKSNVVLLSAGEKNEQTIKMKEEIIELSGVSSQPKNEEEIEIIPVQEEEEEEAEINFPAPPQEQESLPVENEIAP
Protocol: as §1

mouse CD20 [4] = target: T2, mouse CD20; test: flow cytometry on MC38/mCD20 cells
Protocol: as §1

B1: 2 + 1 m20_mPL_3 (Fc fusion)
heavy 1: QVQLQQPGAELVRPGTSVKLSCKASGYTFTSYWMHWIKQRPGQGLEWIGVIDPSDNYTKYNQKFKGKATLTVDTSSSTAYMQLSSLTSEDSAVYFCAREGYYGSSPWFAYWGQGTLVTVSSASTKGPSVFPLAPSSKSTSGGTAALGCLVKDYFPEPVTVSWNSGALTSGVHTFPAVLQSSGLYSLSSVVTVPSSSLGTQTYICNVNHKPSNTKVDKKVEPKSCDGGGGSGGGGS[letters of about 200 residues left out][letters of about 250 residues left out]
heavy 2: QVQLQQPGAELVRPGTSVKLSCKASGYTFTSYWMHWIKQRPGQGLEWIGVIDPSDNYTKYNQKFKGKATLTVDTSSSTAYMQLSSLTSEDSAVYFCAREGYYGSSPWFAYWGQGTLVTVSSASTKGPSVFPLAPSSKSTSGGTAALGCLVKDYFPEPVTVSWNSGALTSGVHTFPAVLQSSGLYSLSSVVTVPSSSLGTQTYICNVNHKPSNTKVDKKVEPKSCDKTHTCPPCPAPEAEGAPSVFLFPPKPKDTLMISRTPEVTCVVVDVSHEDPEVKFNWYVDGVEVHNAKTKPREEQYNSTYRVVSVLTVLHQDWLNGKEYKCKVSNKALPSSIEKTISKAKGQPREPQVCTLPPSRDELTKNQVSLSCAVKGFYPSDIAVEWESNGQPENNYKTTPPVLDSDGSFFLVSKLTVDKSRWQQGNVFSCSVMHEALHNRFTQKSLSLSPGK
light: QIVMSQSPAILSASPGEKVTMTCRARSSVSYIHWYQQKPGSSPKPWIYATSNLASGVPGRFSGSGSGTSYSLTITRVEAEDAATYYCQQWSSKPPTFGGGTKLEIKRTVAAPSVFIFPPSDEQLKSGTASVVCLLNNFYPREAKVQWKVDNALQSGNSQESVTEQDSKDSTYSLSSTLTLSKADYEKHKVYACEVTHQGLSSPVTKSFNRGEC
notes: Knob-into-hole heterodimer, 2 anti-mCD20 Fabs + 1 mPDL1 ectodomain between Fab and Fc
Max MFI (mouse PD1 [1]): 5630 MFI | IC50 (M), luciferase bioassay, 1nM CD3 bsAb (mouse PD1 [2]): 7.7e-10 M | IC50 (M), luciferase bioassay, 2.5 nM CD3 bsAb (mouse PD1 [2]): 3.16e-10 M | Max % inhibition, luciferase bioassay, 1nM CD3 bsAb (mouse PD1 [2]): 80% | Max % inhibition, luciferase bioassay, 2.5 nM CD3 bsAb (mouse PD1 [2]): 74% | EC50 (mouse CD20 [3]): 15 nM | Max MFI (mouse CD20 [3]): 28900 MFI | EC50 (mouse CD20 [4]): 3.93 nM | Max MFI (mouse CD20 [4]): 52900 MFI

B3: 2 + 2 m20_mPL_2 (Fc fusion)
heavy 1: QVQLQQPGAELVRPGTSVKLSCKASGYTFTSYWMHWIKQRPGQGLEWIGVIDPSDNYTKYNQKFKGKATLTVDTSSSTAYMQLSSLTSEDSAVYFCAREGYYGSSPWFAYWGQGTLVTVSSASTKGPSVFPLAPSSKSTSGGTAALGCLVKDYFPEPVTVSWNSGALTSGVHTFPAVLQSSGLYSLSSVVTVPSSSLGTQTYICNVNHKPSNTKVDKKVEPKSCDKTHTCPPCPAPEAEGAPSVFLFPPKPKDTLMISRTPEVTCVVVDVSHEDPEVKFNWYVDGVEVHNAKTKPREEQYNSTYRVVSVLTVLHQDWLNGKEYKCKVSNKALPSSIEKTISKAKGQPREPQVYTLPPCRDELTKNQVSLWCLVKGFYPSDIAVEWESNGQPENNYKTTPPVLDSDGSFFLYSKLTVDKSRWQQGNVFSCSVMHEALHNHYTQKSLSLSPGKGGGGSGGGGSGGGGS[letters of about 200 residues left out]
heavy 2: QVQLQQPGAELVRPGTSVKLSCKASGYTFTSYWMHWIKQRPGQGLEWIGVIDPSDNYTKYNQKFKGKATLTVDTSSSTAYMQLSSLTSEDSAVYFCAREGYYGSSPWFAYWGQGTLVTVSSASTKGPSVFPLAPSSKSTSGGTAALGCLVKDYFPEPVTVSWNSGALTSGVHTFPAVLQSSGLYSLSSVVTVPSSSLGTQTYICNVNHKPSNTKVDKKVEPKSCDKTHTCPPCPAPEAEGAPSVFLFPPKPKDTLMISRTPEVTCVVVDVSHEDPEVKFNWYVDGVEVHNAKTKPREEQYNSTYRVVSVLTVLHQDWLNGKEYKCKVSNKALPSSIEKTISKAKGQPREPQVCTLPPSRDELTKNQVSLSCAVKGFYPSDIAVEWESNGQPENNYKTTPPVLDSDGSFFLVSKLTVDKSRWQQGNVFSCSVMHEALHNRFTQKSLSLSPGKGGGGSGGGGSGGGGS[letters of about 200 residues left out]
light: B1 light
notes: Knob-into-hole heterodimer, 2 Fabs + 2 C-terminal mPDL1 ectodomains
EC50 (mouse PD1 [1]): 15.1 nM | Max MFI (mouse PD1 [1]): 8500 MFI | Max % inhibition, luciferase bioassay, 2.5 nM CD3 bsAb (mouse PD1 [2]): 8% | EC50 (mouse CD20 [4]): 3.45 nM | Max MFI (mouse CD20 [4]): 37300 MFI

The next lines start with the values.

EC50 (mouse PD1 [1]): 6.31 nM | Max MFI (mouse PD1 [1]): 6980 MFI | IC50 (M), luciferase bioassay, 2.5 nM CD3 bsAb (mouse PD1 [2]): 6.5e-11 M | Max % inhibition, luciferase bioassay, 2.5 nM CD3 bsAb (mouse PD1 [2]): 33% | EC50 (mouse CD20 [4]): 8.42 nM | Max MFI (mouse CD20 [4]): 35300 MFI
B2: 2 + 2 m20_mPL_3 (Fc fusion)
heavy: QVQLQQPGAELVRPGTSVKLSCKASGYTFTSYWMHWIKQRPGQGLEWIGVIDPSDNYTKYNQKFKGKATLTVDTSSSTAYMQLSSLTSEDSAVYFCAREGYYGSSPWFAYWGQGTLVTVSSASTKGPSVFPLAPSSKSTSGGTAALGCLVKDYFPEPVTVSWNSGALTSGVHTFPAVLQSSGLYSLSSVVTVPSSSLGTQTYICNVNHKPSNTKVDKKVEPKSCDKTHTCPPCPAPEAEGAPSVFLFPPKPKDTLMISRTPEVTCVVVDVSHEDPEVKFNWYVDGVEVHNAKTKPREEQYNSTYRVVSVLTVLHQDWLNGKEYKCKVSNKALPSSIEKTISKAKGQPREPQVCTLPPSRDELTKNQVSLSCAVKGFYPSDIAVEWESNGQPENNYKTTPPVLDSDGSFFLVSKLTVDKSRWQQGNVFSCSVMHEALHNRFTQKSLSLSPGKGGGGSGGGGSGGGGSQVQLQQPGAELVRPGTSVKLSCKASGYTFTSYWMHWIKQRPGQGLEWIGVIDPSDNYTKYNQKFKGKATLTVDTSSSTAYMQLSSLTSEDSAVYFCAREGYYGSSPWFAYWGQGTLVTVSSASTKGPSVFPLAPSSKSTSGGTAALGCLVKDYFPEPVTVSWNSGALTSGVHTFPAVLQSSGLYSLSSVVTVPSSSLGTQTYICNVNHKPSNTKVDKKVEPKSCD
light: B1 light
chain: [letters of about 200 residues left out][letters of about 250 residues left out][letters of about 200 residues left out]
notes: Knob-into-hole heterodimer: one arm carries both Fabs, the other both mPDL1 ectodomains

Max MFI (mouse PD1 [1]): 18900 MFI | IC50 (M), luciferase bioassay, 1nM CD3 bsAb (mouse PD1 [2]): 1.91e-10 M | Max % inhibition, luciferase bioassay, 1nM CD3 bsAb (mouse PD1 [2]): 84% | EC50 (mouse CD20 [3]): 11.3 nM | Max MFI (mouse CD20 [3]): 30300 MFI
B4: 2 + 2 m20_mPL_4 (Fc fusion)
heavy: QVQLQQPGAELVRPGTSVKLSCKASGYTFTSYWMHWIKQRPGQGLEWIGVIDPSDNYTKYNQKFKGKATLTVDTSSSTAYMQLSSLTSEDSAVYFCAREGYYGSSPWFAYWGQGTLVTVSSASTKGPSVFPLAPSSKSTSGGTAALGCLVKDYFPEPVTVSWNSGALTSGVHTFPAVLQSSGLYSLSSVVTVPSSSLGTQTYICNVNHKPSNTKVDKKVEPKSCDGGGGSGGGGS[letters of about 200 residues left out][letters of about 250 residues left out]
light: B1 light
notes: Homodimer
